# Results: the supplement of paper PMC4967469
# pIC50: −log10 of the molar value. The IC50 comes from the fitted curve, where viability falls to half of the control; a fit beyond the top or the lowest dose is shown as a bound at that dose. AUC is the area under the same curve over the 256-fold range up to the top dose, as a fraction: 1 means no effect, lower means more sensitive. For some assays here: A top dose marked as inferred comes from the curve model; the source does not state it.
# What was measured:
# Assay in all cases: Viability of human cancer cell lines after 72 h of drug (GDSC screen)
# Trametinib = compound: CC(=O)Nc1cccc(-n2c(=O)n(C3CC3)c(=O)c3c(Nc4ccc(I)cc4F)n(C)c(=O)c(C)c32)c1 [Trametinib]; settings: top dose 1 µM
# Description: (§1)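 Human cancer cell lines in 384-well plates, medium with 10% serum, drug for 72 h over a 256-fold dose range (nine 2-fold or five 4-fold steps up to the top dose). Adherent lines were fixed and stained with the nucleic acid dye Syto60, suspension lines read with resazurin; signal relative to control wells, capped at 0 and 100%. One two-parameter sigmoid per drug and line, fitted in a mixed model over all curves with the slope shared within a line.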
# I-BET-762 = compound: CCNC(=O)C[C@@H]1N=C(c2ccc(Cl)cc2)c2cc(OC)ccc2-n2c(C)nnc21 [I-BET-762]; settings: top dose 20 µM; top dose inferred
# Description: as §1
# AV-951 = compound: COc1cc2nccc(Oc3ccc(NC(=O)Nc4cc(C)on4)c(Cl)c3)c2cc1OC [AV-951]; settings: top dose 0.128 µM; top dose inferred
# Description: as §1
# KIN001-244 = compound: O=C(NC(COc1ccc2[nH]c(=O)[nH]c2c1)c1ccccc1)c1cccn(Cc2ccc(F)c(F)c2)c1=O [KIN001-244]; settings: top dose 20 µM; top dose inferred
# Description: as §1
# PF-4708671 = compound: CCc1cncnc1N1CCN(Cc2nc3ccc(C(F)(F)F)cc3[nH]2)CC1 [PF-4708671]; settings: top dose 10 µM; top dose inferred
# Description: as §1
# HG-6-64-1 = compound: CCN1CCN(Cc2ccc(NC(=O)c3ccc(C)c(/C=C/c4cnc5[nH]ccc5c4OC)c3)cc2C(F)(F)F)CC1 [HG-6-64-1]; settings: top dose 5.12 µM; top dose inferred
# Description: as §1
Cell Line,AUC (Trametinib),pIC50 (Trametinib),AUC (I-BET-762),pIC50 (I-BET-762),AUC (AV-951),pIC50 (AV-951),AUC (KIN001-244),pIC50 (KIN001-244),AUC (PF-4708671),pIC50 (PF-4708671),AUC (HG-6-64-1),pIC50 (HG-6-64-1)
"LCLC-97TM1 (large cell lung carcinoma, adherent)",0.212,8.10,0.845,4.78,0.976,< 6.89,0.762,5.11,0.967,< 5.00,0.686,5.95
"LCLC-103H (large cell lung carcinoma, adherent)",0.99,< 6.00,0.947,< 4.70,0.972,< 6.89,0.894,< 4.70,0.975,< 5.00,0.579,6.29
"LK-2 (lung squamous cell carcinoma, adherent)",0.86,6.12,0.886,< 4.70,0.988,< 6.89,0.911,< 4.70,0.961,< 5.00,0.858,5.42
"LN-18 (glioma, adherent)",0.956,< 6.00,0.994,< 4.70,0.994,< 6.89,0.95,< 4.70,0.994,< 5.00,0.649,6.12
"LN-229 (glioma, adherent)",0.466,7.30,0.952,< 4.70,0.987,< 6.89,0.955,< 4.70,0.973,< 5.00,0.818,5.54
"LNZTA3WT4 (glioma, adherent)",0.724,6.58,0.983,< 4.70,0.987,< 6.89,0.916,< 4.70,0.989,< 5.00,0.795,5.63
"LOU-NH91 (lung squamous cell carcinoma, adherent)",0.792,6.30,0.959,< 4.70,0.984,< 6.89,0.958,< 4.70,0.959,< 5.00,0.749,5.75
"LS-180 (large intestine, adherent)",0.432,7.40,0.936,< 4.70,0.985,< 6.89,0.908,< 4.70,0.985,< 5.00,0.71,5.86
"LU-99A (large cell lung carcinoma, adherent)",0.619,6.88,0.984,< 4.70,0.987,< 6.89,0.928,< 4.70,0.984,< 5.00,0.754,5.77
"LU-135 (small cell lung carcinoma, suspension)",0.992,< 6.00,0.843,4.97,0.98,< 6.89,0.87,4.87,0.991,< 5.00,0.857,5.51
"M14 (melanoma, adherent)",0.084,> 8.41,0.855,4.76,0.979,< 6.89,0.832,4.86,0.955,< 5.00,0.844,5.40
"M059J (glioma, adherent)",0.892,< 6.00,0.787,5.02,0.974,< 6.89,0.831,4.85,0.955,< 5.00,0.637,6.10
"MC-IXC (neuroblastoma, adherent)",0.996,< 6.00,0.994,< 4.70,0.996,< 6.89,0.911,4.84,0.987,< 5.00,0.593,6.27
"MCF7 (breast, adherent)",0.982,< 6.00,0.986,< 4.70,0.986,< 6.89,0.972,< 4.70,0.953,< 5.00,0.8,5.59
"MDA-MB-157 (breast, adherent)",0.987,< 6.00,0.973,< 4.70,0.97,< 6.89,0.97,< 4.70,0.961,< 5.00,0.807,5.57
"MDA-MB-175-VII (breast, adherent)",0.782,,0.982,< 4.70,0.988,< 6.89,0.92,< 4.70,0.911,< 5.00,0.946,< 5.29
"MDA-MB-231 (breast, adherent)",0.495,7.22,0.972,< 4.70,0.982,< 6.89,0.968,< 4.70,0.981,< 5.00,0.725,5.84
"MDA-MB-361 (breast, adherent)",0.964,< 6.00,0.84,4.87,0.986,< 6.89,0.921,< 4.70,0.97,< 5.00,0.865,5.35
"MDA-MB-436 (breast, adherent)",0.776,6.29,0.952,< 4.70,0.983,< 6.89,0.856,< 4.70,0.971,< 5.00,0.865,< 5.29
"MDA-MB-468 (breast, adherent)",0.892,< 6.00,0.965,< 4.70,0.988,< 6.89,0.83,4.92,0.972,< 5.00,0.945,< 5.29
"ME-180 (cervix, adherent)",0.727,6.54,0.941,< 4.70,0.983,< 6.89,0.809,4.96,0.969,< 5.00,0.614,6.17
"MEL-JUSO (melanoma, adherent)",0.268,7.91,0.974,< 4.70,0.96,< 6.89,0.788,5.00,0.909,< 5.00,0.58,6.26

Cell Line,AUC (Trametinib),pIC50 (Trametinib),AUC (I-BET-762),pIC50 (I-BET-762),AUC (AV-951),pIC50 (AV-951),AUC (KIN001-244),pIC50 (KIN001-244),AUC (PF-4708671),pIC50 (PF-4708671),AUC (HG-6-64-1),pIC50 (HG-6-64-1)
"MES-SA (uterus, adherent)",0.968,< 6.00,0.991,< 4.70,0.992,< 6.89,0.99,< 4.70,0.992,< 5.00,0.591,6.26
"MFE-280 (endometrium, adherent)",0.947,< 6.00,0.854,< 4.70,0.962,< 6.89,0.734,5.15,0.974,< 5.00,0.616,6.14
"MFE-296 (endometrium, adherent)",0.814,6.22,0.972,< 4.70,0.985,< 6.89,0.968,< 4.70,0.978,< 5.00,0.345,6.94
"MFE-319 (endometrium, adherent)",0.744,6.52,0.987,< 4.70,0.989,< 6.89,0.921,< 4.70,0.935,< 5.00,0.643,6.10
"MHH-ES-1 (Ewing sarcoma, adherent)",0.968,< 6.00,0.82,4.95,0.985,< 6.89,0.727,5.26,0.97,< 5.00,0.662,6.05
"MIA-PaCa-2 (pancreas, adherent)",0.364,7.60,0.973,< 4.70,0.985,< 6.89,0.978,< 4.70,0.962,< 5.00,0.541,6.38
"ML-1 (thyroid, adherent)",0.631,6.82,0.938,< 4.70,0.983,< 6.89,0.913,< 4.70,0.973,< 5.00,0.528,6.41
"MOG-G-CCM (glioma, adherent)",0.889,< 6.00,0.871,< 4.70,0.978,< 6.89,0.746,5.14,0.983,< 5.00,0.595,6.21
"MOG-G-UVW (glioma, adherent)",0.45,7.34,0.712,5.31,0.986,< 6.89,0.927,< 4.70,0.986,< 5.00,0.829,5.51
"MS751 (cervix, adherent)",0.92,< 6.00,0.987,< 4.70,0.989,< 6.89,0.958,< 4.70,0.99,< 5.00,0.961,< 5.29
"Mewo (melanoma, adherent)",0.362,7.62,0.972,< 4.70,0.98,< 6.89,0.966,< 4.70,0.973,< 5.00,0.971,< 5.29
"NCI-H28 (mesothelioma, adherent)",0.866,< 6.00,0.977,< 4.70,0.975,< 6.89,0.938,< 4.70,0.899,< 5.00,0.685,5.90
"NCI-H196 (small cell lung carcinoma, adherent)",0.987,< 6.00,0.878,< 4.70,0.988,< 6.89,0.89,< 4.70,0.976,< 5.00,0.816,5.52
"NCI-H292 (lung adenocarcinoma, adherent)",0.166,8.34,0.826,4.80,0.978,< 6.89,0.807,4.89,0.899,< 5.00,0.697,5.89
"NCI-H358 (lung adenocarcinoma, adherent)",0.473,7.28,0.973,< 4.70,0.983,< 6.89,0.85,4.75,0.979,< 5.00,0.584,6.25
"NCI-H441 (lung adenocarcinoma, adherent)",0.595,6.90,0.97,< 4.70,0.979,< 6.89,0.932,< 4.70,0.975,< 5.00,0.894,< 5.29
"NCI-H460 (large cell lung carcinoma, adherent)",0.833,6.25,0.99,< 4.70,0.99,< 6.89,0.928,< 4.70,0.945,< 5.00,0.791,5.69
"NCI-H520 (lung squamous cell carcinoma, adherent)",0.945,< 6.00,0.9,< 4.70,0.967,< 6.89,0.664,5.44,0.969,< 5.00,0.657,6.05
"NCI-H522 (lung adenocarcinoma, adherent)",0.885,< 6.00,0.984,< 4.70,0.982,< 6.89,0.93,< 4.70,0.934,< 5.00,0.492,6.52
"NCI-H596 (lung adenocarcinoma, adherent)",0.816,6.11,0.899,< 4.70,0.97,< 6.89,0.906,< 4.70,0.937,< 5.00,0.83,5.34
"NCI-H630 (large intestine, adherent)",0.745,6.47,0.872,< 4.70,0.988,< 6.89,0.92,< 4.70,0.988,< 5.00,0.892,< 5.29
